{"source": "patent US12473350B2", "about": "“Recombinant humanized type III collagen microsphere with innovative spatial structure, and design, preparation process and usethereof” (Nanjing Tzone Biotechnology Co., Ltd., priority 2023, dated 2025)", "molecules": {"B1": {"name": "Example 2: recombinant humanized type III collagen microsphere, cyclized 72-amino-acid sequence SEQ NO: 1, expressed in E. coli BL21 (DE3) (protein)", "chain": "GERGAPGFRGPAGPNGIPGEKGPAGERGAPGPAGPRGERGAPGFRGPAGPNGIPGEKGPAGERGAPGPAGPR", "modifications": "cyclized"}}, "key": {"[1]": {"test_system": "Human skin fibroblasts (HSF cells)", "test": "MTT assay, effect on HSF cell growth", "format": "cell-based", "settings": "for RGR (24 h) / RGR (48 h): HSF cells", "procedure": "Dimethyl sulfoxide (DMSO) can dissolve formazan in cells, and its light absorption value can be measured at a wavelength of […] using an enzyme-linked immunosorbent assay, which can indirectly reflect the number of live cells. Within a certain range of cell numbers, the amount of MTT crystals formed is proportional to the number of cells.\nLogarithmic phase cells are collected and the cell suspension concentration is adjusted. 100 μL of cell suspension is added per well and plated to adjust the density of the cells to be tested to 10,000 cells/well, and the edge wells are filled with sterile PBS. The cells are incubated under 5% CO2 at 37° C. until the cell monolayer spreads over all the bottom of the wells. Then, the drug in a concentration gradient is added; in principle, the drug can be added once the cells have adhered, with five parallel settings. The incubation is performed under 5% CO2 at 37° C. for 24 h or 48 h and the cells are observed under an inverted microscope. 20 μL of MTT solution (5 mg/mL, i.e., 0.5% MTT) is added to each well and the incubation is continued for 4 h. If the drug can react with MTT, the culture medium may be discarded after centrifugation, followed by carefully washing 2-3 times with PBS, and then adding the MTT-containing culture solution. The culture is terminated and the culture solution is carefully suctioned out from each well. 150 μL of Dimethyl Sulfoxide (DMSO) is added to each well and the culture plate is placed on a shaker to shake at a low speed for 10 min to fully dissolve the crystals. The light absorption value of each well is measured at […] using an Enzyme-Linked Immunosorbent Assay (ELISA) reader. Zero wells (culture medium, MTT, DMSO) and negative control wells (cells, drug dissolving medium at the same concentration, culture solution, MTT, DMSO) are set at the same time."}, "[2]": {"test_system": "Human Skin Fibroblasts (HSF) cells", "test": "Cell scratch assay, HSF cell migration", "format": "cell-based", "settings": "concentrations of 0.01% and 0.02%, 24 h of culture", "procedure": "The principle of scratch test is to draw a line in the cell growth area on a monolayer of adherent cells cultured in vitro in a dish or plate using a micro-pipette tip, suction off the cells in the scratch area, and then continue to culture until the set time (such as 24 hours) to observe whether the peripheral cells have migrated to the central scratch area, in order to determine the growth and migration ability of the cells.\nFirst, a marker is used to draw horizontal lines evenly on the back of a 6-well plate by using a ruler, with a distance between two horizontal lines being approximately 0.5-1 cm, in which each well is crossed by three lines. Approximately 5×10^5 cells are added to each well and cultured in an incubator. At the next day, the cell growth is observed; once the cells cover the bottom of the wells, a micropipette tip is used to scratch on the plate bottom by aid of the ruler, where the micropipette tip is perpendicular as possible to the horizontal lines on the back. Then, the cells are washed three times with PBS to remove the scratched cells, and the culture medium containing 1% FBS is added. The plate is placed in a 37° C., 5% CO2 incubator for cultivation. After 24 hours, the plate is taken photographs to record the convergence degree of the scratches in each well. […]"}, "[3]": {"test_system": "skin at the local injection site", "design": "species or system C57BL/6J female mice", "settings": "mouse, in vivo", "source_text": "Mouse model: C57BL/6J female mice, weighing 20 g per mouse. The experimental group receives an injection of recombinant humanized type III collagen microsphere with innovative spatial structure obtained from Example 2, while the control group receives an injection of commercialized recombinant humanized type III collagen lyophilized fiber. Dissection time points are set at 1 d, 14 d, 28 d, and 56 d, with 3 animals dissected at each time point. At the same time, a control group and a blank group are set, totaling 36 animals. 3. Experimental Procedure 3.1. Surgical Operation • 1) Weighing: Prior to injection, the weight of the animal is weighed to determine the total injection dosage based on the animal's body weight. Subsequently, the injection volume at each injection site is calculated based on the total injection volume and the number of injection points. • 2) The back of an animal is de-haired, and with the spinal column as a midline, one injection area is set on each of the left and right sides of the back, resulting in two injection sites per animal. The product is implanted intradermally in the back, and the injection volume at each injection site is ½ of the total injection volume. Within 28 days after injection, the experiment animals are observed daily for their activity, feeding and mental state, and weighed once a week. […]"}, "[4]": {"test": "In-vivo degradation: residual humanized type III collagen at injection site", "design": "species or system C57BL/6J female mice", "settings": "for AV ± ESD: ESD printed in the row below; for Detected value after subtracting blank / Residual amount: initial injection amount 1 mg, individual animals, listed as Experimental group", "source_text": "Mouse model: C57BL/6J female mice, weighing 20 g per mouse.\nThe experimental group receives an injection of recombinant humanized type III collagen microsphere with innovative spatial structure obtained from Example 2, while the control group receives an injection of commercialized recombinant humanized type III collagen lyophilized fiber. Dissection time points are set at 1 d, 14 d, 28 d, and 56 d, with 3 animals dissected at each time point. At the same time, a control group and a blank group are set, totaling 36 animals.\n3. Experimental Procedure 3.1. Surgical Operation • 1) Weighing: Prior to injection, the weight of the animal is weighed to determine the total injection dosage based on the animal's body weight. Subsequently, the injection volume at each injection site is calculated based on the total injection volume and the number of injection points. • 2) The back of an animal is de-haired, and with the spinal column as a midline, one injection area is set on each of the left and right sides of the back, resulting in two injection sites per animal. The product is implanted intradermally in the back, and the injection volume at each injection site is ½ of the total injection volume.\nSpecific procedures: For the 28 d and 56 d time points, injections shall be administered 28 days in advance; for the 14 d time points, injections shall be administered 14 days in advance; and for the 1 d time points, injections shall be administered 24 h in advance. At experimental time point of zero, mice of 1 d 14 d, and 28 d time points are killed for detection, while the mouse of 56 d time point is continued to be observed for additional 28 days. The detailed process is illustrated in FIG. 14.\nTaking 1 d, 14 d, 28 d, and 56 d after injection as the observation time points, the experimental animals are killed, and the tissue at the injection site is fixed in 10% formalin and then embedded with paraffin for slicing, and the obtained slices are subjected to Hematoxylin-eosin (HE) staining and Sirius Red staining to detect the content of humanized type III collagen."}, "[5]": {"test": "Negative staining electron microscopy and 3D reconstruction, size measurement", "format": "physicochemical", "settings": "negative staining EM 3D density map", "procedure": "The protein sample is diluted with the PBS buffer to a concentration of 0.1 mg/mL, 8 μL of diluted protein sample solution is taken to drip onto a glow-discharge treated (15 mA for 90 seconds, PELCO easiGlow™) copper grid and incubated for 40 seconds. After the excess sample is removed, the obtained copper grid is quickly washed once with 0.75% uranium formate, and further incubated for 40 s by dripping 10 μL of 0.75% uranium formate; and then the excess solution is removed, allowing it to air dried.\nThe prepared copper grid containing the sample is placed under a Talos 120 electron microscope (Thermo Fisher Scientific, USA) for sample observation at a voltage of 120 kV. Negative staining photographs are captured at a magnification of 92,000× using a Ceta-D camera (Thermo Fisher Scientific, USA), with a pixel size of 1.9 Å/pixel.\nThe negative staining data are processed using CryoSPARC v4.0.3 version software for two-dimensional (2D) classification, three-dimensional (3D) reconstruction, and 3D classification.\nThe selected particles are first subjected to 3D reconstruction (ab-initio reconstruction), resulting in five classes of 3D reconstruction models (ab-initio models), as shown in FIG. 9. The finally selected 3D density map of the cyclic collagen corresponds to the fourth class (3,244 particles, approximately 40%). […]"}, "[6]": {"settings": "Day 1, mouse skin injection site"}, "[7]": {"settings": "Day 14, mouse skin injection site"}, "[8]": {"settings": "Day 28, mouse skin injection site"}, "[9]": {"settings": "Day 56, mouse skin injection site"}}, "note": "Values joined by “and” are separate entries in the source; they are usually repeats but may differ in a detail not shown here. Equal values may be shown once.", "data": [{"molecule": "B1", "values": [{"measurement": "RGR (24 h)", "setting": "[1]; 100 μg/ml", "value": 103.90, "unit": "%"}, {"measurement": "RGR (48 h)", "setting": "[1]; 100 μg/ml", "value": 118.20, "unit": "%"}, {"measurement": "RGR (24 h)", "setting": "[1]; 200 μg/ml", "value": 105.80, "unit": "%"}, {"measurement": "RGR (48 h)", "setting": "[1]; 200 μg/ml", "value": 123.40, "unit": "%"}, {"measurement": "RGR (24 h)", "setting": "[1]; 400 μg/ml", "value": 112.1, "unit": "%"}, {"measurement": "RGR (48 h)", "setting": "[1]; 400 μg/ml", "value": 139.1, "unit": "%"}, {"measurement": "Effect on HSF cell growth", "setting": "[1]; concentrations of 0.01% and 0.02%, after 24 h, comparable to commercialized collagen control", "value": "growth-promoting effect"}, {"measurement": "Effect on HSF cell migration (scratch convergence)", "setting": "[2]", "value": "significant pro-cell migration activity"}, {"measurement": "Irritant reaction to the skin", "setting": "[3]", "value": "no significant irritant reaction to the skin"}, {"measurement": "AV ± ESD", "setting": "[4]; Day 1, average of residual amount (mg) of 3 animals", "value": 0.904}, {"measurement": "Detected value after subtracting blank", "setting": "[4]; [6]", "value": "0.0901 mg/mL and 0.0902 mg/mL and 0.0911 mg/mL"}, {"measurement": "Residual amount", "setting": "[4]; [6]", "value": "0.901 mg and 0.902 mg and 0.911 mg"}, {"measurement": "Residual rate", "setting": "[4]; Day 1 after injection into mouse skin (reference, relative to Day 1 average)", "value": 100, "unit": "%"}, {"measurement": "AV ± ESD", "setting": "[4]; Day 14, average of residual amount (mg) of 3 animals", "value": 0.534}, {"measurement": "Detected value after subtracting blank", "setting": "[4]; [7]", "value": "0.0523 mg/mL and 0.0566 mg/mL and 0.0514 mg/mL"}, {"measurement": "Residual amount", "setting": "[4]; [7]", "value": "0.523 mg and 0.566 mg and 0.514 mg"}, {"measurement": "Residual rate", "setting": "[4]; Day 14 after injection into mouse skin, relative to Day 1 average", "value": 58.9, "unit": "%"}, {"measurement": "AV ± ESD", "setting": "[4]; Day 28, average of residual amount (mg) of 3 animals", "value": 0.217}, {"measurement": "Detected value after subtracting blank", "setting": "[4]; [8]", "value": "0.0213 mg/mL and 0.0224 mg/mL and 0.0216 mg/mL"}, {"measurement": "Residual amount", "setting": "[4]; [8]", "value": "0.213 mg and 0.224 mg and 0.216 mg"}, {"measurement": "Residual rate", "setting": "[4]; Day 28 after injection into mouse skin, relative to Day 1 average", "value": 24.1, "unit": "%"}, {"measurement": "AV ± ESD", "setting": "[4]; Day 56, average of residual amount (mg) of 3 animals", "value": 0.013}, {"measurement": "Detected value after subtracting blank", "setting": "[4]; [9]", "value": "0.0013 mg/mL and 0.0015 mg/mL and 0.0011 mg/mL"}, {"measurement": "Residual amount", "setting": "[4]; [9]", "value": "0.013 mg and 0.015 mg and 0.011 mg"}, {"measurement": "Residual rate", "setting": "[4]; Day 56 after injection into mouse skin, relative to Day 1 average", "value": 1.44, "unit": "%"}, {"measurement": "In vivo degradation period versus control group", "setting": "[4]; mouse skin injection site, 1 d to 56 d", "value": "significant property of prolonging the degradation period in vivo"}, {"measurement": "Diameter of annular spherical structure", "setting": "[5]", "value": "about 7 nm"}, {"measurement": "Pore size", "setting": "[5]", "value": "about 3 nm"}]}]}
